{
  "source": "PubChem BioAssay AID504332",
  "about": "(National Center for Advancing Translational Sciences (NCATS), 2011)",
  "note": "About 31,000 (8.9%) of roughly 350,000 compounds were called active. This list was built around the results that the source calls inconclusive (neither active nor inactive); the mix of calls is not that of the screen. The call rests on the fitted dose curve; in most records, active means well fitted inhibition curve with a large enough effect; inconclusive means small, poorly fitted or top-dose-only effect; inactive means no such curve, though single readings can be large or run the other way. Potencies beside an inconclusive call are fits to weak or partial responses and may not hold up. On the % scale 0 is the no-effect control and ±100 the full control effect; potency means the concentration at half of the fitted maximal effect; tags describe the fitted curve by direction and shape.",
  "data": [
    {"biological_target": "Histone-lysine N-methyltransferase EHMT2 (Homo sapiens) (UniProt Q96KQ7)", "sequence (Q96KQ7 whole entry, looked up)": "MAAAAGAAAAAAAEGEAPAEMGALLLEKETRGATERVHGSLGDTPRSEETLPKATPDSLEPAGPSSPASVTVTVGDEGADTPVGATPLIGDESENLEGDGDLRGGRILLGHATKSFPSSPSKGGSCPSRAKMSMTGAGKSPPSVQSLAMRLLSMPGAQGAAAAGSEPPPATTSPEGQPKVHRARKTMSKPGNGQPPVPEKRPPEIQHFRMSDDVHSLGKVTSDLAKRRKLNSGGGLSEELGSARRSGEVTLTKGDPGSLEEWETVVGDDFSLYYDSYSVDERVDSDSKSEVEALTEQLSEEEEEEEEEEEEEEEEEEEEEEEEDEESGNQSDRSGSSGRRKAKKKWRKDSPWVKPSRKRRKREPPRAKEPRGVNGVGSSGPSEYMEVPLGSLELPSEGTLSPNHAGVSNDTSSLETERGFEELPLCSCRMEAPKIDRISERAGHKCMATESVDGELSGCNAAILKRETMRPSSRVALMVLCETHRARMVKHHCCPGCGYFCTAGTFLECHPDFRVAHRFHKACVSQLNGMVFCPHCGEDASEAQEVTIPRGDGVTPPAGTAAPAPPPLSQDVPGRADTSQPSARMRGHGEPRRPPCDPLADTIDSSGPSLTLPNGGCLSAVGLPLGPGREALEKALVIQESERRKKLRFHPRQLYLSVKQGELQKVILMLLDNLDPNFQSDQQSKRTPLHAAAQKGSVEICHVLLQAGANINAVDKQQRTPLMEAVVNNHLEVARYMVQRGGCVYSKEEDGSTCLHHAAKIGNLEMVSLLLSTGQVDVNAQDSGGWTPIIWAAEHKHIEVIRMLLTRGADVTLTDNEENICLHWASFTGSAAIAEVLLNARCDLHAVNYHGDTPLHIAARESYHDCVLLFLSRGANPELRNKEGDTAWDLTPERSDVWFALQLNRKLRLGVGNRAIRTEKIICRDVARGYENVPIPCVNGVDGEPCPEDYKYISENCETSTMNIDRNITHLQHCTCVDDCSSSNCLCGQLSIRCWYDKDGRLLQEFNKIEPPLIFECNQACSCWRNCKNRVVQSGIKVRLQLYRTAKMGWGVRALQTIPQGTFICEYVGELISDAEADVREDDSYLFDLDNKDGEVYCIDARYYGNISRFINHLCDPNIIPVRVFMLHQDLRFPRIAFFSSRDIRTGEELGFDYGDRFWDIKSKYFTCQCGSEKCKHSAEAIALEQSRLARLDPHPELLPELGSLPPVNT", "test": "qHTS Assay for Inhibitors of Histone Lysine Methyltransferase G9a; further: nearly all actives have a fitted effect of over 75% in size", "conditions": "G9a H3K9 monomethylation, AlphaScreen, 2 h; activity, negative = inhibition: at 59 µM (top of the series) unless noted", "procedure,_shortened": "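Quantitative HTS format: methyltransferase activity on a biotin-tagged H3K9 peptide is measured by AlphaScreen, using a rabbit anti-monomethyl-H3K9 antibody with streptavidin donor and anti-IgG acceptor beads. Final levels are 20 nM enzyme, 500 nM peptide, 20 uM SAM; 2 h RT.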", "values": [
      {"smiles": "CCOC(=O)c1cc(CC)sc1NC(=O)COC", "activity, negative = inhibition": "inconclusive: -60.1% [inhibitor]"},
      {"smiles": "COc1ccc(Nc2cc(C(=O)NCCCN3CCN(c4ccccc4F)CC3)c3ccccc3n2)c(OC)c1", "Potency": "active: 12.6 µM"},
      {"smiles": "Cc1cccc(-c2n[nH]c(=S)n2/N=C/c2cccs2)c1", "Potency": "active: 0.708 µM"},
      {"smiles": "COc1cccc(CNc2ncc(-c3ccccc3)n2C)c1", "Potency": "inconclusive: 22.4 µM [inhibitor, full curve, poor fit]"},
      {"smiles": "COc1ccc2nc3c(cc2c1)c(NC(=O)CC(C)C)nn3CC(C)C", "Potency": "inactive"},
      {"smiles": "Cc1cc(C)nc(SCC(=O)NNC(=O)c2cccs2)n1", "Potency": "active: 56.2 µM"},
      {"smiles": "Cc1ccc(Cl)cc1NC(=S)N(CCCN1CCN(C)CC1)Cc1ccco1", "Potency": "inconclusive: 44.7 µM [inhibitor, partial curve]"},
      {"smiles": "CCN1CCc2c(sc(-n3cccc3)c2C(C)NC(=O)Nc2ccc(Br)cc2)C1", "note": "(stereo unspecified)", "Potency": "inconclusive: 14.1 µM [inhibitor, partial curve]"},
      {"smiles": "COc1ccc(N(CC(=O)NCc2ccccc2C)S(=O)(=O)c2ccccc2[N+](=O)[O-])c(OC)c1", "Potency": "inconclusive: 70.8 µM [inhibitor, partial curve, poor fit]"},
      {"smiles": "COc1cccc(Nc2nnc(SCc3nc4ccccc4s3)s2)c1", "Potency": "active: 10 µM"},
      {"smiles": "O=C(NC1CCS(=O)(=O)C1)/C(=C\\c1ccc(F)cc1)NC(=O)c1ccccc1", "note": "(stereo unspecified)", "Potency": "inconclusive: 100 µM [inhibitor, single point]"},
      {"smiles": "CCN(CC(=O)NCc1ccc(Cl)cc1)C(=O)CN1C(=O)NC(C)(c2ccccc2)C1=O", "note": "(stereo unspecified)", "Potency": "inactive"},
      {"smiles": "Cc1ccc(C)c2nc3sc(C(=O)O)cc3cc12", "Potency": "active: 39.8 µM"},
      {"smiles": "c1ccc(-c2cc(N3CCOCC3)nc3ccccc23)cc1", "Potency": "active: 4.47 µM"},
      {"smiles": "COC(=O)[C@H](C)NC(=O)Nc1ccc(Oc2ccccc2)cc1", "Potency": "inactive"},
      {"smiles": "COc1ccc(C2(C)NC(=O)N(CC(=O)NCCC3=CCCCC3)C2=O)cc1OC", "note": "(stereo unspecified)", "Potency": "inconclusive: 28.2 µM [inhibitor, single point]"},
      {"smiles": "COc1ccc(C2C(C(C)=O)=C(O)C(=O)N2CCc2c[nH]c3ccccc23)cc1OC", "note": "(stereo unspecified)", "Potency": "active: 25.1 µM"},
      {"smiles": "CC(=O)Oc1ccc(C(=O)[C@H]2[C@H]3C(=O)N(c4ccc5ccccc5c4)C(=O)[C@H]3[C@@H]3C=CC=NN32)cc1", "Potency": "inconclusive: 20 µM [inhibitor, single point]"},
      {"smiles": "CCOC(=O)Cc1csc(NC(=O)CCCc2ccccc2)n1", "Potency": "active: 50.1 µM"},
      {"smiles": "COC(=O)c1cc(OC)c(OC)cc1NC(=S)NC(=O)c1ccco1", "Potency": "inconclusive: 63.1 µM [inhibitor, single point]"},
      {"smiles": "CC(C)(C)c1cc(N/C=C\\c2nnnn2-c2ccc(Br)cc2)no1", "Potency": "inconclusive: 7.94 µM [inhibitor, partial curve, poor fit]"},
      {"smiles": "COCCCNC(=S)N(CCCO)Cc1cc2cc3c(cc2[nH]c1=O)OCCO3", "Potency": "inactive"},
      {"smiles": "Cc1cc(C)c(NC(=O)CSc2nnc(-c3ccco3)n2N)c(C)c1", "activity, negative = inhibition": "inactive: 3.3% [at 12.7 µM]"},
      {"smiles": "CCCN(CCC)c1nc2c(C)cccn2c(=O)c1/C=C1/SC(=S)N(Cc2ccco2)C1=O", "Potency": "active: 39.8 µM"},
      {"smiles": "C=C(C)C(=O)Nc1cccc(C2=NOC3(C2)C[C@H](C(N)=O)N(C(=O)CC#N)C3)c1", "note": "(stereo partly specified)", "activity, negative = inhibition": "inconclusive: -77.9% [inhibitor] [at 12.7 µM]"},
      {"smiles": "CCCS(=O)(=O)c1c(S(=O)(=O)CCC)c2cc(C(C)(C)C)ccn2c1C(=O)c1ccccc1", "Potency": "inconclusive: 0.126 µM [inhibitor, full curve, poor fit]"},
      {"smiles": "COc1cccc(N2CCN(C(=O)C3CCN(S(=O)(=O)c4c(C)noc4/C=C/c4ccccc4F)CC3)CC2)c1", "Potency": "inactive"},
      {"smiles": "CCN1/C(=C\\C=C(C(C)=O)C(C)=O)Sc2ccccc21", "Potency": "active: 50.1 µM"},
      {"smiles": "CC1CCc2c(sc3nc(CSc4n[nH]c(N)n4)[nH]c(=O)c23)C1", "note": "(stereo unspecified)", "Potency": "inactive"},
      {"smiles": "CC(C)Cn1c(-c2cccs2)nc2nc3ccccc3nc21", "Potency": "inactive"},
      {"smiles": "O=C(Nc1nnc(SCC(=O)N2CCCCC2)s1)c1cccs1", "Potency": "active: 8.91 µM"},
      {"smiles": "CCOc1ccc(CCNC(=O)C(CC)n2nc(C)n3c(cc4sccc43)c2=O)cc1OCC", "note": "(stereo unspecified)", "Potency": "inconclusive: 89.1 µM [inhibitor, single point]"},
      {"smiles": "COc1cc2c3nnc(-c4ccc(F)cc4)c-3cn(Cc3ccc(F)cc3)c2cc1OC", "Potency": "active: 50.1 µM"},
      {"smiles": "CCc1ccc(NC(=O)/C(C#N)=C\\c2ccc(OC)c(C(=O)O)c2)cc1", "Potency": "inconclusive: 25.1 µM [inhibitor, partial curve, poor fit]"},
      {"smiles": "Cc1ccc(NC(=O)NNC(=O)C2CC(c3cccs3)=NO2)cc1", "note": "(stereo unspecified)", "Potency": "inactive"},
      {"smiles": "COc1ccc(-c2[nH]c3ccccc3c2SCCNC(=O)c2cc3ccccc3oc2=O)cc1", "Potency": "inconclusive: 89.1 µM [inhibitor, single point]"},
      {"smiles": "CC1(C)Oc2ccc3ccc(=O)oc3c2/C(=N/O)C1=O", "Potency": "inconclusive: 0.631 µM [inhibitor, partial curve, poor fit]"},
      {"smiles": "Cc1cc(NC(=O)Nc2ccc(F)c(Cl)c2)no1", "Potency": "inactive"},
      {"smiles": "O=C(Cn1nc(-c2cccc([N+](=O)[O-])c2)c2ccccc2c1=O)Nc1cccnc1", "Potency": "inconclusive: 89.1 µM [inhibitor, single point]"},
      {"smiles": "O=C1NCCN(Cc2ccoc2)C1CC(=O)N(CCO)Cc1ccccc1", "note": "(stereo unspecified)", "Potency": "inactive"},
      {"smiles": "CN1CCN(S(=O)(=O)c2cccc(C(=O)Nc3sccc3C(N)=O)c2)CC1", "Potency": "inconclusive: 35.5 µM [inhibitor, single point]"},
      {"smiles": "O=C(Nc1nccs1)c1ccc(Cl)nc1", "Potency": "inconclusive: 79.4 µM [inhibitor, single point]"},
      {"smiles": "O=C(CSc1nnc(Nc2ccccc2)s1)Nc1ccc(S(=O)(=O)N2CCOCC2)cc1", "Potency": "active: 8.91 µM"},
      {"smiles": "CC(C)(C)c1ccc(Cn2nnc3c(=O)[nH]c(C4CCN(C(=O)Cc5cccs5)CC4)nc32)cc1", "Potency": "inconclusive: 79.4 µM [inhibitor, single point]"},
      {"smiles": "N#C/C(=C\\c1cccs1)C(=O)Nc1ccccn1", "Potency": "active: 56.2 µM"},
      {"smiles": "c1ccc(CN=C2NN=C(c3cc4ccccc4o3)CS2)cc1", "Potency": "inconclusive: 31.6 µM [inhibitor, single point]"}
    ]}
  ]
}
